Source: PubChem BioAssay AID686971 (National Center for Advancing Translational Sciences (NCATS), 2013)
In all, about 360,000 compounds went through this assay and about 7,500 (2.1%) were called active. This list was built around the results that the source calls inconclusive (neither active nor inactive); the mix of calls is not that of the screen. Calls come from the whole dose curve; as a rule, active = well fitted cell-killing curve with a large enough effect; inconclusive = small, poorly fitted or top-dose-only effect, or effect the other way, or another doubt; inactive = no such curve, though single readings can be large or run the other way. Potencies of inconclusive entries are left out as doubtful fits.
Potency is the fitted concentration of half-maximal effect; tags give direction and shape of the fitted curve.

Test: qHTS for induction of synthetic lethality in tumor cells producing 2HG: qHTS for the HT-1080-IDH1KD cell line;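 for activity, negative = toxicity: 0% = DMSO wells and -100% = cell-free medium wells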
Settings: HT-1080 IDH1 knockdown viability, ATP luminescence, 48 h; activity, negative = toxicity: at 46.1 µM (top of the series) unless noted
Procedure, shortened: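 CellTiter-Glo luminescence after 48 h compound exposure at 37 degrees C of IDH1-knockdown HT-1080 cells in 5% FBS RPMI. %Activity scaled between DMSO wells and cell-free media wells, with curves fitted and assigned curve classes.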
With `COc1ccc(C2C(Oc3ccccc3)C(=O)N2c2cc(C)ccc2C)cc1OC` (configuration not stated) the Potency was “inactive”. In the case of `CC(C)c1ccc(NC(=O)C2CCN(S(=O)(=O)c3ccc4c(c3)C(C)(C)C(=O)N4C)CC2)cc1`, the Potency is reported as “inactive”. For `Cc1ccc2nc(NC(=O)C3CCN(S(=O)(=O)c4cccs4)CC3)sc2c1`, the Potency was inconclusive [cytotoxic, single point]. For `Cc1cc(C)cc(NC(=O)COc2coc(CN3CCc4ccccc43)cc2=O)c1`, the Potency was inconclusive [cytotoxic, single point]. In the case of `COc1ccc(-c2cn3c(C)c(C(=O)N4CCCc5ccccc54)sc3n2)cc1`, the Potency is reported as inconclusive [cytotoxic, single point]. For `Cc1nc2ccc3nc(NC(=O)c4ccco4)sc3c2s1`, the Potency was inconclusive [rising, partial curve]. In the case of `CC(C)C[C@H]1CNC(=S)N1C[C@H]1CCCN1C[C@H](CC(C)C)N1C[C@H](CC(C)C)N(CCc2ccccc2)C1=S`, the Potency is reported as inconclusive [cytotoxic, partial curve]. With `COc1ccccc1CC(=O)Nc1ccccc1O` the Potency was “inactive”. For `O=C(NN1C(=O)c2ccccc2NC1c1ccc([N+](=O)[O-])o1)c1ccc([N+](=O)[O-])cc1` (configuration not stated), the Potency was inconclusive [cytotoxic, single point]. For `COC(=O)c1cc(Cl)c(NC(=O)/C=C/c2ccc(OC)c(OC)c2)cc1OC`, the Potency was “inactive”. For `O=C(N/N=C/c1cc(Br)cc(Br)c1O)c1cccc(S(=O)(=O)N2CCOCC2)c1`, the Potency was inconclusive [cytotoxic, full curve, poor fit]. For `Cc1cc(C(F)(F)F)nn2cnnc12`, the Potency was “inactive”. For `COc1ccc(-c2oc3ncnc(NCCCN4CCOCC4)c3c2-c2ccc(OC)cc2)cc1`, the Potency was inconclusive [cytotoxic, partial curve]. For `COc1cccc2c1nc(C)c1cc(C)oc12`, the Potency was “inactive”. For `O=C1C=C(NCCc2ccccc2)C2(CCCCC2)O1`, the Potency was “inactive”. With `O=C(CSc1nnc(NC(=O)c2c(F)cccc2F)s1)NCc1ccco1` the Potency was “inactive”. With `COC(C[C@H](O)C[C@H](O)[C@H](C)OCc1ccccc1)OC` the Potency was “inactive”. With `CC1(C)CCSC(/C=C/c2ccccc2)=N1` the Potency was active: 25.9 µM. With `COc1ccc(C2=[N+](C)CCn3cccc32)c(OC)c1` the Potency was inconclusive [cytotoxic, full curve]. With `COc1ccc(OC)c(NC(=O)C2(C)CCN2CCOc2ccccc2)c1` (configuration not stated) the Potency was “inactive”. In the case of `CC(=O)c1sc(N/N=C2\CC3CC2C(C)C3(C)C)nc1C` (configuration not stated), the Potency is reported as inconclusive [cytotoxic, partial curve]. In the case of `Cc1ccc(C(=O)/C=C/Nc2ccccc2C(N)=O)cc1`, the Potency is reported as “inactive”. In the case of `O=C(O)c1ccc(-n2cc(-c3cc4ccccc4oc3=O)[nH]c2=S)cc1`, the Potency is reported as “inactive”. In the case of `CC(C)N(C)c1ncnc2c1ncn2[C@H]1CN(Cc2ccncc2)C[C@@H](CO)O1`, the Potency is reported as “inactive”. With `CCOC(=O)c1cnc2c(C)cccc2c1NCCc1ccc(OC)c(OC)c1` the Potency was inconclusive [cytotoxic, partial curve]. For `Cc1ccc(N2CCN(CCc3nc4cc(NC(=O)c5ccco5)ccc4n3C)CC2)cc1`, the Potency was inconclusive [cytotoxic, single point]. For `O=C(Nc1cccc(S(=O)(=O)NC2=NCCC2)c1)c1ccc(OC(F)F)cc1`, the Potency was “inactive”. With `COc1ccc(-c2csc(NC(=O)C3CC(=O)N(Cc4ccco4)C3)n2)cc1` (configuration not stated) the Potency was “inactive”. With `CN(C)c1ccc(-c2csc(C(O)(c3ccccc3)C(F)(F)F)n2)cc1` (configuration not stated) the Potency was inconclusive [cytotoxic, single point]. For `CC(C)C[C@@H](COCc1cccc(Cl)c1)N1CCN(C(=O)c2ccc(C(F)(F)F)cc2)CCC1=O`, the Potency was inconclusive [cytotoxic, single point]. In the case of `Cc1csc(NC(=O)c2ccccc2)n1`, the Potency is reported as inconclusive [cytotoxic, single point]. In the case of `COC(=O)c1ccc(C(=O)OC)c(NC(=S)N2CCOCC2)c1`, the Potency is reported as “inactive”. In the case of `CCCCn1c(N)c(N(CC)C(=O)c2ccc(-c3ccc(Cl)cc3)o2)c(=O)[nH]c1=O`, the Potency is reported as “inactive”. In the case of `CCc1ccc(C(=O)NNc2ccc(Cl)cc2)cc1`, the Potency is reported as active: 6.51 µM. In the case of `O=C(NCc1cccc(Cl)c1)c1ccc2nc[nH]c2c1`, the Potency is reported as “inactive”. With `Cc1ccc(NC(=O)CCC(=O)N/N=C/c2ccccc2O)cc1` the Potency was inconclusive [cytotoxic, single point]. With `CC1(Cc2ccc(OC(F)(F)F)cc2)C(=O)Nc2ccc(S(=O)(=O)NC3CCCCC3)cc21` (configuration not stated) the Potency was active: 11.6 µM. For `COc1cc(C(O)c2nc(-c3cc4ccccc4o3)cs2)ccc1F` (configuration not stated), the Potency was inconclusive [cytotoxic, single point]. With `CC(=O)Nc1cncc(-c2cccc(S(C)(=O)=O)c2)n1` the Potency was “inactive”. In the case of `O=C(CCc1ccccc1)NNc1ccc(F)cc1`, the Potency is reported as active: 2.31 µM. For `COc1ccc(/C(C)=N/NC(=O)Cn2nc([N+](=O)[O-])cc2C)cc1`, the Potency was “inactive”. In the case of `C[C@H](CO)N1C[C@H](C)[C@@H](CN(C)C(=O)Nc2ccc(C(F)(F)F)cc2)Oc2ccc(NS(=O)(=O)c3ccccc3)cc2C1=O`, the Potency is reported as “inactive”. For `COC(=O)c1cc(C)nc2c1C(=O)C(=O)C=C2N1CCOCC1`, the Potency was active: 5.17 µM. For `O=C(NCC(=O)N(c1ccc(F)cc1)C(C(=O)NC1CCCCC1)c1ccncc1)c1ccco1` (configuration not stated), the Potency was “inactive”. For `COc1ccc(-c2nc3c(Br)c(N)c(Br)cc3o2)cc1`, the Potency was inconclusive [cytotoxic, single point]. For `CN1C2CCC1CC(NC(=O)CSCc1ccc(Cl)cc1Cl)C2` (configuration not stated), the activity, negative = toxicity was inconclusive: -32% [cytotoxic]. With `Cc1cc(Br)cn2c(Cc3ccccc3)c(-c3ccco3)nc12` the Potency was inconclusive [cytotoxic, single point]. With `Cc1ccc(OCC(=O)N/N=C/c2cn[nH]c2-c2ccc(Cl)c(Cl)c2)cc1` the Potency was inconclusive [cytotoxic, single point]. In the case of `CN(C)c1ccc(CNC(=O)C2(C)Cc3c(-c4ccc(N(C)C)cc4)ccnc3O2)cc1` (configuration not stated), the Potency is reported as inconclusive [cytotoxic, single point]. With `CCN1CCN(c2nc(S(=O)(=O)c3ccc(C)cc3)c(Cl)s2)CC1` the Potency was inconclusive [cytotoxic, single point]. In the case of `COc1ccc(C(=O)Nc2nnc(-c3ccc(F)cc3)s2)c(OC)c1`, the Potency is reported as inconclusive [rising, full curve, poor fit]. With `CCCCN(CCCC)CP(=O)(c1ccccc1)c1ccccc1` the Potency was inconclusive [cytotoxic, single point]. With `CCC(CC)C(=O)OCC(=O)Nc1cc(OC)c([N+](=O)[O-])cc1C` the Potency was “inactive”. For `C=CCNc1nnc(SC2CC(=O)N(c3ccc(OC)cc3)C2=O)s1` (configuration not stated), the Potency was inconclusive [cytotoxic, single point]. For `CCCCCCCCCCOC(=O)Cn1c(COc2cccc(C)c2)[n+](C)c2ccccc21`, the Potency was inconclusive [cytotoxic, single point]. For `OC(c1ccc(Cl)c(Cl)c1)c1ncc(-c2ccccc2Cl)[nH]1` (configuration not stated), the Potency was inconclusive [cytotoxic, single point]. With `NC(N)=N/N=C/c1ccc(Cl)c([N+](=O)[O-])c1` the Potency was active: 23.1 µM. In the case of `CCCCCCn1c(=O)n2n(c1=O)C[C@]1(OC(=O)NC3CCCC3)CN(S(=O)(=O)c3ccc(C)cc3)C[C@]1(O)C2`, the Potency is reported as inconclusive [cytotoxic, single point]. With `COc1cccc(NC(=O)CSc2nnc(-c3cc(C)n(-c4ccccc4)c3C)o2)c1` the activity, negative = toxicity was inconclusive: -32.3% [cytotoxic]. For `COc1ccc(/C(=N/Nc2ncnc3ccccc23)C(=O)O)cc1`, the Potency was active: 23.1 µM. In the case of `COc1ccc(C2=NOC(Cn3nc(-c4ccccc4)cc3C(=O)NCc3ccccc3OC)C2)cc1` (configuration not stated), the Potency is reported as “inactive”. In the case of `Nc1cc2sc(-c3ccc(C(=O)O)cc3)nc2cc1Cl`, the Potency is reported as inconclusive [cytotoxic, single point]. For `FC(F)(F)c1nc(-c2cccs2)ncc1-c1nnnn1-c1ccc(Cl)cc1`, the Potency was inconclusive [cytotoxic, single point]. For `CN(C)c1ccnc(SCc2ccccc2Cl)c1C#N`, the Potency was inconclusive [cytotoxic, single point]. In the case of `Cc1ccccc1N1C(=O)C(Oc2ccc(Cl)cc2)C1CNCCCOC(C)C` (configuration not stated), the Potency is reported as active: 16.4 µM. In the case of `CC(C)[C@H](NC(=O)OCc1ccccc1)C(=O)OCC(=O)NC1CCCCC1`, the Potency is reported as inconclusive [cytotoxic, full curve]. With `O=C(C[C@H]1C[C@H](C(=O)N2CCOCC2)[C@@]2(CCC3CCCC3)c3[nH]c4cc(-c5ccco5)ccc4c3CCN2C1=O)NCCCn1ccnc1` the Potency was active: 16.4 µM. With `NNC(=O)c1cc(-c2cccs2)nc2ccccc12` the Potency was inconclusive [cytotoxic, single point]. With `Cc1ccc(Nc2nnc(SCC(=O)Nc3cccnc3Cl)s2)cc1C` the Potency was inconclusive [cytotoxic, single point]. For `Cc1onc(-c2c(F)cccc2Cl)c1C(=O)Nc1nc2ccccc2[nH]1`, the Potency was inconclusive [cytotoxic, single point]. For `CN(c1ccccc1)S(=O)(=O)c1ccc(C(=O)N2CCN(c3ccccc3Cl)CC2)cc1`, the Potency was inconclusive [cytotoxic, single point]. With `Cc1cc(C(=O)CSc2n[nH]c(N)n2)c(C)n1-c1cccc(F)c1` the Potency was inconclusive [cytotoxic, full curve].
